In all, about 390,000 compounds went through this assay and about 930 (0.24%) were called active. The shares of active, inactive and inconclusive entries below differ from those in the screen. Calls follow the shape of the dose curve; as a rule, active = well fitted activation curve with a large enough effect; inconclusive = small, poorly fitted or top-dose-only effect; inactive = no such curve, though single readings can be large or run the other way. Potencies beside an inconclusive call are fits to weak or partial responses and may not hold up.
Assay: qHTS for Suppressors of FUS Proteinopathy: Primary screen using FUS-linked yeast assay; also: nearly all actives have a fitted effect of over 55% in size;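 as to growth rescue (activation): plate controls were DMSO vehicle for no effect and reference control for full effect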
Details: S. cerevisiae FUS-expressing, OD600, 24 h; Potency: growth rescue; growth rescue (activation): at 76.6 µM (top of the series)
Method in brief: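 Read-out: OD at 600 nm after 24hr at 30C, reporting rescue of FUS-induced yeast toxicity. Cells at OD 0.005 in galactose (2%) minimal medium; compounds tested in a dilution series; CP55940 titration from 92uM final as control.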
For `CCOc1ccc(CN(C(=O)c2cc(=O)c3cc(Cl)ccc3o2)C2CCS(=O)(=O)C2)cc1` (stereo unspecified), the Potency was active: 31.6 µM.
With `CCc1ccc(CNc2ncnc3onc(-c4ccc(Cl)cc4)c23)cc1` the “growth rescue (activation)” value was inactive: 7.37%.
With `S=c1[nH]nc(-c2ccc(Cl)cc2)n1/N=C/C=C/c1ccco1` the Potency was inconclusive: 12.6 µM [activator, partial curve, poor fit].
For `CCCc1cc(C(=O)Cc2ccc(F)cc2)c(O)cc1O`, the “growth rescue (activation)” value was inactive: 16.2%.
In the case of `Cc1cc(/C=N/n2cnnc2)c(C)n1-c1ccc2c(c1)OCO2`, the “growth rescue (activation)” value is reported as inactive: 20.1%.
With `Cc1ccc(CN2CCN(c3ncccn3)CC2)o1` the growth rescue (activation) was inconclusive: 61.3% [activator].
With `CCCC1=Nc2cc(C(=O)NCCCOC(C)C)ccc2Sc2ccccc21` the Potency was inconclusive: 39.8 µM [activator, single point].
For `CCCCCCCCN1C(=O)[C@H](CC(=O)NCCCC)C[C@@]2(C(=O)OC)CC(C)(C)CC=C12`, the Potency was inconclusive: 15.8 µM [activator, partial curve, poor fit].
For `COc1ccccc1NS(=O)(=O)c1ccc(C)c(NC(=O)c2ccc(S(=O)(=O)N3CCCCCC3)cc2)c1`, the Potency was inconclusive: 11.2 µM [activator, full curve, poor fit].
For `O=C(c1ccc2c(c1)N(Cc1cccc(Cl)c1)C(=O)c1ccccc1S2(=O)=O)N1CCCCCC1`, the Potency was inconclusive: 31.6 µM [activator, partial curve, poor fit].
With `Cc1ccc(-n2nnnc2SCC(=O)NCC2CCCO2)cc1C` (stereo unspecified) the “growth rescue (activation)” value was inactive: 0.683%.
With `O=C(CCS(=O)(=O)c1nc(-c2ccc3c(c2)OCO3)cc(C(F)(F)F)n1)Nc1ccc(F)cc1F` the “growth rescue (activation)” value was inactive: 24.3%.
In the case of `Cc1ccc(-c2c(C(=O)N(C)Cc3ccccc3)oc(=O)c3ccccc23)cc1`, the Potency is reported as inconclusive: 17.8 µM [activator, partial curve, poor fit].
In the case of `COc1ccc(CN2C(=O)[C@H]3Cc4c([nH]c5ccccc45)C(C)(C)N3C2=O)cc1`, the Potency is reported as inconclusive: 22.4 µM [activator, single point].
In the case of `Cc1ccc(NC(=O)N/C=C/c2ccccc2)cc1`, the Potency is reported as inconclusive: 31.6 µM [activator, single point].
With `O=C(CN1C(=O)/C(=C/c2ccccc2F)Sc2ccccc21)NCC1CCCO1` (stereo unspecified) the Potency was inconclusive: 14.1 µM [activator, partial curve, poor fit].
For `Cc1ccc([C@H]2N[C@]3(CCCN(Cc4ccc(Br)cc4)C3=O)[C@H]3C(=O)N(Cc4ccccc4)C(=O)[C@@H]23)cc1`, the Potency was inconclusive: 31.6 µM [activator, partial curve].
For `COc1ccc(CCNC(=O)CCCn2c(=O)c3ccccc3n(CC(=O)Nc3ccc(C)cc3Cl)c2=O)cc1OC`, the Potency was inconclusive: 28.2 µM [activator, partial curve, poor fit].
With `Cc1ccc(NC(=O)COC(=O)c2cc(=O)c3cc(F)ccc3o2)cc1` the Potency was inconclusive: 11.2 µM [activator, partial curve, poor fit].
With `CCN(CC)CCN(C(=O)c1ccc2c(c1)CCCC2)c1nc2ccc(C)cc2s1` the Potency was inconclusive: 22.4 µM [activator, partial curve, poor fit].
In the case of `C=CCNC(=O)CSc1nc2cc(C(=O)OCC)ccc2n1CC`, the “growth rescue (activation)” value is reported as inactive: 22%.
For `COc1ccc(N2C(=O)C(C)(C)C2c2c(O)ccc3ccccc23)cc1` (stereo unspecified), the Potency was inconclusive: 12.6 µM [activator, partial curve].
For `COc1ccc(C(=O)NCCn2cc(SCC(=O)Nc3ccc(F)cc3)c3ccccc32)cc1`, the Potency was inconclusive: 50.1 µM [activator, single point].
With `N#CCc1nc2n(n1)Cc1ccccc1-2` the growth rescue (activation) was inconclusive: 36.4% [activator].
In the case of `C[C@H](NC(=O)c1nc[nH]c1C(=O)NCCCCCNC(=O)OC(C)(C)C)C(=O)OCc1ccccc1`, the Potency is reported as inconclusive: 15.8 µM [activator, single point].
In the case of `CC(C)[C@H](NC(=O)c1ccccc1F)C(=O)OCC(=O)NC(=O)NC1CCCCC1`, the Potency is reported as inconclusive: 22.4 µM [activator, partial curve].
In the case of `CC(C)CC(COCc1ccc(Cl)cc1)N1CCN(C(=O)c2cccc(C(F)(F)F)c2)CCC1=O` (stereo unspecified), the Potency is reported as active: 31.6 µM.
With `COc1cccc(Oc2ccc(N)cn2)c1` the “growth rescue (activation)” value was inactive: 15.7%.
With `CCC(=O)N1CC2(CC(c3cccc(NC(=O)CC(c4ccccc4)c4ccccc4)c3)=NO2)C[C@H]1C(N)=O` (stereo partly specified) the Potency was inconclusive: 25.1 µM [activator, single point].
In the case of `CC(C)(C)OC(=O)N1CCc2onc(-c3ccc(Cl)cc3)c2C1=O`, the “growth rescue (activation)” value is reported as inactive: -17.9%.
For `Cc1ccc(Cn2c(CNC(=O)Cc3cccc([N+](=O)[O-])c3)nc3cccnc32)cc1`, the “growth rescue (activation)” value was inactive: -10.6%.
For `CCOc1cccc(C(=O)N/N=C/c2coc3ccccc3c2=O)c1`, the “growth rescue (activation)” value was inactive: 22.1%.
In the case of `CS(=O)(=O)c1ccccc1-c1nnc(NC(=O)Cc2ccccc2)o1`, the growth rescue (activation) is reported as inconclusive: -74.7% [activator].
For `COC(=O)C1=CN(CCOC23CC4CC(CC(C4)C2)C3)C=C(C(=O)OC)C1c1ccsc1`, the Potency was inconclusive: 25.1 µM [activator, partial curve, poor fit].
For `O=C(CNC(=O)Cn1ccc2ccccc2c1=O)NCCCN1CCN(c2cccc(Cl)c2)CC1`, the Potency was inconclusive: 50.1 µM [activator, single point].
In the case of `COc1ccc(-c2cc3nc(C)cc(N4CC(C)CC(C)C4)n3n2)cc1` (stereo unspecified), the “growth rescue (activation)” value is reported as inactive: 9.15%.
In the case of `COc1ccc(-c2ccc(CCC(=O)O)n2-c2ccc(O)cc2)cc1`, the Potency is reported as inconclusive: 31.6 µM [activator, partial curve, poor fit].
With `Cc1nn2c(=O)cc(COc3ccc(/C=C(\C#N)C(=O)Nc4ccccc4)cc3Cl)nc2s1` the “growth rescue (activation)” value was inactive: 19.7%.
In the case of `CCOc1ccc(-n2c(SC/C=C/c3ccccc3)nnc2-c2ccco2)cc1`, the Potency is reported as inconclusive: 14.1 µM [activator, partial curve, poor fit].
With `COc1ccc(C2=NN(C(=O)CCCC(=O)O)C(c3cn(-c4ccccc4)nc3-c3ccccc3)C2)cc1` (stereo unspecified) the Potency was inconclusive: 35.5 µM [activator, partial curve, poor fit].
With `C=CCC[C@@H](Cc1ccc(F)cc1)C(=O)OC[C@@H]1CCCN1C(=O)[C@H](CC=C)CC(=O)N[C@H](CO)Cc1ccccc1` the Potency was active: 20 µM.

From PubChem BioAssay AID1347120 (National Center for Advancing Translational Sciences (NCATS), 2019)
Potency is read from the fitted curve at half-maximal effect; tags tell the direction and shape of the fitted curve.
